Measured values: PubChem BioAssay AID1159614 (National Center for Advancing Translational Sciences (NCATS), 2016)
The whole screen tested about 45,000 compounds, of which about 65 (0.1%) were called active. Calls follow the shape of the dose curve; as a rule, active = well fitted activation curve with a large enough effect; inconclusive = small, poorly fitted or top-dose-only effect; inactive = no such curve, though single readings can be large or run the other way. The list shows a part of the results.

Biological target: Galactocerebrosidase (Homo sapiens) (UniProt P54803)
Sequence of UniProt P54803 (P54803 whole entry, looked up): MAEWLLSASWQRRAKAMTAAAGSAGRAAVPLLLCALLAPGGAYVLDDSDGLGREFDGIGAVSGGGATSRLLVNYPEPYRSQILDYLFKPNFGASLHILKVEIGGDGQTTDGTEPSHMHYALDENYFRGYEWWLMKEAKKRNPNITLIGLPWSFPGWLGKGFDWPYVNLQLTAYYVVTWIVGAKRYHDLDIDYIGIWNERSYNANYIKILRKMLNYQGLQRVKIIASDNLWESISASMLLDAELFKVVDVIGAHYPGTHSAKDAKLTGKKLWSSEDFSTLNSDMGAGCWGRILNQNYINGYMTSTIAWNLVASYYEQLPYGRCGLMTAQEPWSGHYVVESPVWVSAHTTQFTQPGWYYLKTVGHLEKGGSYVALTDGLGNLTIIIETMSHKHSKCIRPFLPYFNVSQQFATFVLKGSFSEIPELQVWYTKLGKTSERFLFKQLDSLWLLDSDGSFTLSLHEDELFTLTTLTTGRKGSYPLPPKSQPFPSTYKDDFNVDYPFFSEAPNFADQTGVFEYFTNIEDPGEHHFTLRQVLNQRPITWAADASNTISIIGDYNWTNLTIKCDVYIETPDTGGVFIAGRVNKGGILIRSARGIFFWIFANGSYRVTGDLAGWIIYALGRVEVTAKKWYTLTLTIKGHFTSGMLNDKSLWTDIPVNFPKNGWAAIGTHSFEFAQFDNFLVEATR
Assay: A Novel Cell-Based Assay to Identify Small Molecules for B -Galactocerebrosidase; also: 0% is about no effect; nearly all actives have a fitted effect of over 65% in size
Details: 145M-Twi-hGALC-G270D cells (Twitcher mouse brain line with human GALC G270D), HMU-beta-Gal fluorescence, 48 h; series mostly up to 57.5 µM; activation: at the top concentration
Summary of the method: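 Brain-derived Twitcher mouse 145M-Twi cells stably expressing human GALC-G270D or wild-type GALC, treated live, then residual GALC activity read by fluorescence of HMU-b-Gal substrate (0.1 mM final) in citrate-phosphate buffer pH 5.2 with sodium taurocholate. Signal increase indicates enhancement.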

activation, inactive:
Brc1ccc(-c2nc(N3CCN(c4ccccc4)CC3)c3ccccc3n2)cc1 -28.7%
Cn1nnnc1SCCCNCc1ccc(-c2cccc(Cl)c2)o1 -20.9%
O=c1[nH]c2ccc(NS(=O)(=O)c3ccc(F)cc3)cc2s1 -31.4%
CCOc1ccc2nc(N3CCN(C(=O)C(C)C)CC3)sc2c1 -11.5%
COc1cc(OC)c(C(=O)CCCN2CCCC2)c(OC)c1 -9.28%
CC(C)c1ccc(NC(=O)c2cc(S(=O)(=O)NC3CCCCC3)ccc2F)cc1 -4.75%
COCCCN1C(=O)c2[nH]nc(-c3ccccc3O)c2C1c1ccc(OC)cc1 (stereo not drawn) -8.4%
CCN(CC)CCCNC(=O)C(C)n1nc(C)n2c(cc3occc32)c1=O (stereo not drawn) -6.31%
Cc1c(Cl)cccc1NC(=O)CCn1cnnn1 -24%
COc1ccc(Cl)cc1NC(=O)COC(=O)CC(C)(C)CC1=NS(=O)(=O)c2ccccc2N1 -3.02%
COC(=O)c1cc(C)nc2c1c(=O)nc(SCc1cccc(C(F)(F)F)c1)n2C1CC1 -9.63%
Cc1ccc(-n2ccnc(NCCc3ccccc3)c2=O)cc1C -10.8%
COc1ccc(NC(=O)CSc2nnc(-c3nonc3NC(C)=O)n2C)cc1Cl -11.8%
Cc1ccccc1-n1c2nc(=O)[nH]c(=O)c-2cc2c(Cl)cccc21 -14.4%
Cc1cccc(Cn2c(SCc3ccc(C(=O)NCc4cccs4)cc3)nc3cccnc32)c1 -11.6%
CCOC(=O)c1c(C)[nH]c(C)c1S(=O)(=O)N1CCCC(C(=O)Nc2ccc(OC)c(OC)c2)C1 (stereo not drawn) -16.1%
O=c1cc2nc(-c3ccccc3F)nc(SCc3ccc(Br)cc3)n2[nH]1 -17%
Cc1ccc2[nH]c(CSc3nnc(C)s3)cc(=O)c2c1 -1.13%
COC(=O)c1ccccc1NC(=O)CN(c1ccc(Cl)cc1)S(=O)(=O)c1ccc(OC)cc1 -0.303%
COc1ccc(CCNC(=O)Cn2c(=O)nc(-c3ccccc3F)c3cc(Cl)ccc32)cc1OC -16.4%
O=C(C1CCC(CNS(=O)(=O)c2cccs2)CC1)N1CCN(c2ccc(Cl)cc2)CC1 (stereo not drawn) -10.2%
COc1ccc(N2CCN(c3ncnc4onc(C)c34)CC2)cc1 -21.9%
Cc1cccc(N2CCN(C(=O)C3CCCN(C(=O)c4cc5sccc5n4C)C3)CC2)c1C (stereo not drawn) -7.68%
O=C(Nc1cc(-c2ccc(F)c(F)c2)no1)c1ccccc1F -5.4%
CCOc1ccccc1NC(=O)C1CCN(S(=O)(=O)c2cccc3nonc23)CC1 -19.5%
COc1ccc(NC(=O)C(=O)c2cc(C)n(-c3ccc(C)cc3)c2C)cc1Cl -0.587%
COCCNC(=O)CCn1c(=O)[nH]c2cc(OC)c(OC)cc2c1=O -15%
CC1=C(C(=O)Nc2ccc(F)cc2)C(c2ccc(N(C)C)cc2)NC(=O)N1 (stereo not drawn) -6.12%
CCC1CN(C(=O)C2CCN(S(=O)(=O)c3c(C)noc3/C=C/c3ccc(C)cc3)CC2)c2cc(C)ccc2O1 (stereo not drawn) -13%
CCOc1ccc(CCNC(=O)Cn2ccc3cc(S(=O)(=O)N4CCCCCC4)ccc32)cc1 -7.43%
CCn1c(SCC(=O)Nc2cc(Cl)ccc2OC)nc2c([nH]c3ccccc32)c1=O -1.51%
CC(=O)c1ccc(NC(=O)c2nn(C)c3c2COc2ccccc2-3)cc1 -10.5%
COc1ccccc1NC(=O)C1=C(C)Nc2nc(SCc3ccccc3)nn2C1c1cccs1 (stereo not drawn) -16.9%
O=C(NCCc1ccc(Cl)cc1)c1ccc2c(c1)N(Cc1ccccc1)C(=O)CS2 -3.39%
Cc1ccc(NC(=O)c2sc3nc[nH]c(=O)c3c2C)cc1C -24.3%
Cc1ccc(NC(=O)CN2C(=O)c3ccccc3Sc3ncccc32)c(C)c1 -17.4%
O=c1c2ccccc2nc(-c2ccc(Cl)cc2)n1CCCCOc1ccc(F)cc1 -9.31%
CCOc1ccccc1NC(=O)N1CCC(N2CCN(Cc3ccccc3)C(=O)C2=O)CC1 -25.9%
CCc1cc2c(-c3ccccc3)cc(=O)oc2c2c1OCN(Cc1ccc(C)cc1)C2 -18.7%
CCOC(=O)c1c(NC(=O)c2cc(-c3ccc(Br)cc3)on2)sc(C)c1C -23%
CC(Oc1ccccc1F)C(=O)N1CCC(c2nc3ccccc3o2)CC1 (stereo not drawn) -11.7%
CCOc1ccc(CN2C(=O)c3ccccc3Sc3ccc(C(=O)NC4CCC(C)CC4)cc32)cc1 (stereo not drawn) 5.91%
CCOC(=O)c1ccccc1NC(=O)CCc1c(C)nc2c(c1C)c(=O)n(C)c(=O)n2C -19.2%
Cc1ccc(N(CC(=O)NCc2ccc(OC(C)C)cc2)S(=O)(=O)N(C)C)cc1 -12%
COC(=O)c1ccc(NC(=O)CCOc2ccccc2)cc1 -7.05%
Cc1ccc(Cn2c(Cc3ccccc3)nc3ccccc32)cc1 -4.34%
Cn1cc(C(=O)N2CCN(c3ccccc3)CC2)c(=O)c2cc(S(=O)(=O)N3CCCC3)ccc21 17.8%
O=C(NC1CC(=O)N(c2ccc(F)cc2)C1)C(c1ccccc1)c1ccccc1 (stereo not drawn) -8.51%
COc1ccc(-c2noc(CSc3nnc(-c4ccncc4)n3-c3ccc(OC)cc3)n2)cc1 5.33%
Cc1cccc(NC(=O)Cn2c(=O)oc3cc(S(=O)(=O)N4CCCCCC4)ccc32)c1 -28.3%
COc1ccc(CNC(=O)CCS(=O)(=O)c2cc3c4c(c2)CCN4C(=O)CC3)cc1 -11.8%
COC(=O)c1ccc(NC(=O)c2cc3cc4ccc(OC)c(Cl)c4nc3s2)cc1 -5.88%
COc1ccc(S(=O)(=O)N(CCc2ccccc2)CC(=O)NCc2ccc(C)cc2)cc1 -12.4%
CCCC(=O)Nc1nnc(S(=O)(=O)N(C)c2ccccc2)s1 -13.6%
O=C(Nc1c(O)c2ccccc2oc1=O)c1ccccc1Cl -13.2%
COCCNC(=O)c1ccc(NC(=O)N2CCCCc3ccccc32)cc1 -10.2%
CCOc1ccc(CNC(=O)CN2C(=O)CSc3c2c(C)nn3-c2ccccc2)cc1 -21.5%
Cc1ccc(CSc2nc3cccnc3n2Cc2nc(-c3ccccc3F)oc2C)cc1 -8.47%
COc1ccc(NC(=O)C(=O)NCCc2csc3nc(-c4ccccc4C)nn23)cc1 6.92%
CCOc1ccc(-n2nc3ccc(NC(=O)COc4ccccc4C)cc3n2)cc1 9.29%
O=C(C1CC1)N1CCc2cc(Br)cc(S(=O)(=O)Nc3ccc(C(F)(F)F)cc3)c21 10.2%
COc1cccc(CNC(=O)C2CCCN(c3nnc(-n4c(C)ccc4C)s3)C2)c1 (stereo not drawn) -8.81%
O=C(NCC(c1cccnc1)N1CCN(Cc2ccccc2)CC1)C(=O)Nc1ccc(F)cc1 (stereo not drawn) -14.2%
